# Reference: PubChem BioAssay (NCATS)
# Several values for one entry are separate records, joined by “and”; a condition that tells them apart may be missing. Equal entries are not always repeated. The list shows a part of the results. Shown are side measurements of this screen, not its main read-out; they come without a call. The list favours compounds with an active or inconclusive main result. Potencies come from curve fits of mixed quality, noted in brackets.
# Test: qHTS Assay for Lipid Storage Modulators (AID 1519)
# Settings: Drosophila S3 cells, BODIPY lipid droplet/cell ratio, laser cytometry, cells loaded with oleic acid
# Procedure, shortened: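 Cells seeded at 5,000 per well were treated with compounds over a concentration series and loaded with oleic acid (400 uM, as added). Lipid droplet fluorescence (488 nm excitation, 500-530 nm channel) was read by laser-scanning cytometry and normalized to 20 uM Triacsin C.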
# [1] = measured here: cell count channel max response
# [2] = measured here: cell number channel AC50
# [3] = measured here: lipid (BODIPY) channel AC50
# [4] = measured here: lipid channel max response
# Tags describe the fitted curve by direction and shape.
SMILES,max response [1],AC50 [2],AC50 [3],max response [4]
Cc1cnc(CNc2cc(-c3ccc(C(=O)N(C)C)cc3)ncn2)cn1,33.2%,"17800 nM [rising, single point]","20000 nM [rising, single point]",37.4%
CCNc1ncc2nc(-c3cc(F)cc(F)c3)c(=O)n(-c3ccc(OC)cc3)c2n1,33.8%,"35.5 nM [rising, full curve, poor fit]","17.8 nM [rising, full curve]",2.45%
N=C(N)S/C=C\C(=O)O,32.9%,"7080 nM [rising, partial curve, poor fit]","8910 nM [rising, full curve, poor fit]",42.3%
Cc1cnc(CNc2ncnc3ccc(-c4ccc(C(=O)N(C)C)cc4)cc23)cn1,45.3%,"5620 nM [rising, partial curve]","3160 nM [rising, full curve]",54.9%
COc1ccccc1CNc1cc(-c2ccccc2Cl)ncn1,21.5%,"6310 nM [rising, single point]","3160 nM [rising, full curve, poor fit]",23.8%
CCOC(=O)C1=C(O)C(=O)N(Cc2ccccc2)C1,28.7%,"14100 nM [rising, partial curve, poor fit]","15800 nM [rising, partial curve, poor fit]",19.5%
COc1ccc2c(c1OC)C(Cc1ccccc1)N1CCc3cc4c(cc3C1C2)OCO4 (stereo not given),54.8%,"1410 nM [rising, full curve]","2000 nM [rising, full curve]",-21.1%
OCC1NCC(O)C(O)C1O (stereo not given),36.7%,"316 nM [falling, full curve, poor fit]","355 nM [falling, full curve, poor fit]",40.4%
COc1ncc2nc(-c3cccs3)c(=O)n(CCC#N)c2n1,36.1%,"28200 nM [rising, partial curve, poor fit]","25100 nM [rising, partial curve, poor fit]",44.5%
CN(C)c1ccc(-c2cncnc2N(C)Cc2ccco2)cc1,22.8%,"1000 nM [rising, partial curve]","794 nM [rising, partial curve]",31.8%
COc1ccc(C(=O)C2C3C4COC(O4)C(=O)C3C3C=Cc4ccccc4N32)c(OC)c1 (stereo not given),75.8%,"14100 nM [rising, partial curve]","12600 nM [rising, partial curve]",95.5%
COc1ccc(CNc2nc(-c3ccccc3OC)nc3ccccc23)c(OC)c1,-34.9%,"22400 nM [falling, single point]","31600 nM [falling, single point]",-87%
COc1ccccc1-c1cc(NCc2cccs2)ncn1,42.2%,"3160 nM [rising, full curve]","1580 nM [rising, full curve]",51.2%
COc1c(-c2coc3cc4c(cc3c2=O)CC(OC(C)=O)C(C)(C)O4)ccc2c1C=CC(C)(C)O2 (stereo not given),-35.1%,"2240 nM [falling, full curve]","2240 nM [falling, full curve]",-104%
CC(=O)N1CCC2(CC1)CCN(C(=O)Nc1cccc(C#N)c1)CC2,20%,"5.62 nM [rising, full curve, poor fit]","5.62 nM [rising, full curve, poor fit]",24.5%
COc1ccc2[nH]c(=O)c3c(c2c1)OC(C)(C)C=C3,108%,"5010 nM [rising, full curve]","4470 nM [rising, full curve]",133%
CN(C)c1nc(-c2cccc(C#N)c2)nc2ccccc12,20.1%,"1780 nM [rising, partial curve]","501 nM [rising, partial curve]",26.9%
C=C1C(=O)O[C@@H]2C3OC3(C)CC/C=C(\C)CC[C@@H]12 (stereo not given in full),73.3%,"39800 nM [rising, single point]","39800 nM [rising, single point]",76.9%
COc1ccc(-c2oc3ccccc3c(=O)c2O)cc1,45.5%,"15800 nM [rising, partial curve, poor fit]","17800 nM [rising, partial curve, poor fit]",64.4%
N#Cc1cccc(-c2nccc(-n3ccnc3)n2)c1,16.5%,"22.4 nM [rising, full curve, poor fit]","25.1 nM [rising, full curve, poor fit]",19.8%

SMILES,max response [1],AC50 [2],AC50 [3],max response [4]
c1cncc(-c2ccc3ncnc(NCCN4CCOCC4)c3c2)c1,27.1%,"708 nM [rising, full curve, poor fit]","708 nM [rising, full curve]",35.6%
COc1ccccc1-c1cc(Nc2ccc(F)cc2)ncn1,15.8%,"794 nM [rising, full curve, poor fit]","891 nM [rising, full curve, poor fit]",19.6%
CN(C)C(=O)c1ccc(-c2cncnc2Nc2ccc(F)cc2)cc1,32.1%,"2820 nM [rising, full curve]","2820 nM [rising, full curve]",40.9%
CCNc1ncc2nc(-c3ccc(Cl)cc3)c(=O)n(Cc3cccc(OC)c3)c2n1,34.9%,"89.1 nM [rising, full curve, poor fit]","112 nM [rising, full curve, poor fit]",41.3%
CC(N)=NCc1cccc(CN)c1,73.7%,"7080 nM [falling, full curve, poor fit]","7080 nM [falling, full curve, poor fit]",76.3%
CN(C)c1ncc2nc(CCc3ccccc3)c(=O)n(CCc3ccccc3)c2n1,14.6%,"2000 nM [rising, partial curve, poor fit]","1580 nM [rising, partial curve, poor fit]",18.5%
COC(=O)N1CCC[C@@]2(CCN(c3ncccn3)C2)C1,24.6%,"794 nM [rising, full curve, poor fit]","316 nM [rising, full curve, poor fit]",37.9%
O=C(c1csnn1)N1CCC2(CCCN(c3ccccn3)C2)CC1,15%,"282 nM [rising, full curve, poor fit]","355 nM [rising, full curve, poor fit]",23.9%
CC1CC2(C)Oc3ccccc3C3OCC1(COC(=O)Nc1ccccc1)C(C)C32 (stereo not given),89.2%,"3550 nM [rising, full curve]","3550 nM [rising, full curve]",118%
COc1cccc(Nc2ncc3nc(-c4ccccc4)c(=O)n(C)c3n2)c1,8.8%,"1580 nM [rising, partial curve]","1580 nM [rising, partial curve, poor fit]",5.45%
CC(=O)Oc1cc(C(C)C)c(OCCN(C)C)cc1C,51.7%,"39800 nM [rising, single point]","39800 nM [rising, single point]",47.9%
Cc1noc(C)c1-c1nccc(NCc2cccs2)n1,3.03%,"1000 nM [rising, partial curve]","398 nM [rising, full curve, poor fit]",12.8%
O=c1c(-c2ccc(F)c(F)c2)nc2cncnc2n1Cc1ccccc1,20.4%,"70.8 nM [rising, full curve, poor fit]","63.1 nM [rising, full curve]",30%
NCCCCCCNS(=O)(=O)c1cccc2c(Cl)cccc12,71.7% and 28.3%,"35500 nM [rising, partial curve, poor fit]","35500 nM [rising, partial curve, poor fit]",86.5% and 27.9%
OC[C@H]1NC[C@@H](O)[C@@H](O)[C@H]1O,61.1%,"17800 nM [rising, full curve, poor fit]","22400 nM [rising, partial curve, poor fit]",67.7%
COCCn1c(=O)c(-c2ccc(F)cc2)nc2cnc(OCc3ccccc3)nc21,7.55%,"631 nM [rising, full curve, poor fit]","708 nM [rising, full curve]",-17.9%
Clc1ccccc1-c1nccc(NCCN2CCOCC2)n1,34%,"1120 nM [rising, full curve, poor fit]","1120 nM [rising, full curve, poor fit]",39.3%
COCCn1c(=O)c(-c2cc(F)cc(F)c2)nc2cnc(OCc3ccccc3)nc21,19.4%,"7080 nM [rising, partial curve]","3980 nM [rising, partial curve]",6.13%
COc1cccc(Nc2ncc3nc(-c4cccs4)c(=O)n(-c4ccccc4)c3n2)c1,41.2%,"1260 nM [rising, partial curve, poor fit]","22400 nM [falling, single point]",-96%
N=C(N)SCCc1ccc(CCSC(=N)N)cc1,-63.6%,"25100 nM [falling, partial curve]","25100 nM [falling, partial curve]",-61.6%
